Experimental findings from a collection of fitness landscapes (doi:10.1038/s41467-024-54723-y) are described below.

The full ranking holds about 18,000 sequences; the median of “TetR repression strength (sort-seq, GFP reporter)” is about 0.23, and the highest 2% start at about 0.68. This is one part of the list.

This assay has as its target TetR (class B, Tn10) (UniProt P04483). Put plainly: TetR repression strength (sort-seq, GFP reporter) (relative to tetO2 = 1); higher = stronger repression. To be noted: E. coli. In outline: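 In LB with 50 µg/mL chloramphenicol, E. coli SIG10-MAX holding a low-copy library with eight randomized operator positions between a constitutive promoter and sfGFP, plus constitutive TetR, grew for 5 h at 37 °C. FACS then sorted 10^6 cells into 13 fluorescence bins for Illumina sequencing of each bin. Repression strength equals the top bin index plus one less the read-weighted mean bin, normalized to the unaltered operator. Values from three independent transformations were averaged when reads were ≥30 in every replicate and the CV was ≤0.5.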
Sequence of UniProt P04483 (P04483 whole entry): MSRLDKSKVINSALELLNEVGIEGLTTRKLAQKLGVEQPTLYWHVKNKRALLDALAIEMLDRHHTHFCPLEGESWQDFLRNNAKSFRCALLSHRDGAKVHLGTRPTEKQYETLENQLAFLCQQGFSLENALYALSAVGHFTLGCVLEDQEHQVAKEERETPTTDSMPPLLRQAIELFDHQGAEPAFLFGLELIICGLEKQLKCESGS
As for TCCCTTTCAGTCGTTGAGA, the TetR repression strength was 0.336.
The result for TCCCCGAGAGTTGGAGAGA reads 0.244; that for TCCCATACAGTGGAGGAGA, 0.168.
The result for TCCCCGCGAGTTCAAGAGA reads 0.371; that for TCCCGCGTAGTTTTGGAGA, 0.333.
The figure for TCCCGCTGAGTTGTCGAGA is 0.472.
TCCCTGCAAGTACGAGAGA gave a TetR repression strength of 0.288.
As to TCCCCTTAAGTAGGAGAGA, the TetR repression strength came to 0.203.
The figure for TCCCCGTGAGTAGCAGAGA is 0.307.
TCCCGGCCAGTGGAGGAGA came in with a TetR repression strength of 0.19.
Take TCCCGCGAAGTACAGGAGA: the TetR repression strength came out at 0.153.
The figure for TCCCCTCGAGTTTACGAGA is 0.347.
TCCCGTCGAGTGATGGAGA returned a TetR repression strength of 0.0117.
The figure for TCCCATAGAGTTGGGGAGA is 0.0498; for TCCCGCGTAGTCTTGGAGA it is 0.301; for TCCCCAAAAGTTCCAGAGA it is 0.366.
As to TCCCCAGCAGTTAGGGAGA, the TetR repression strength was 0.453.
The result for TCCCTGTTAGTAGTCGAGA reads 0.299.
The result for TCCCACGAAGTCACAGAGA reads 0.266.
In turn, TCCCGGGTAGTTTACGAGA displayed a TetR repression strength of 0.00221.
TCCCCTCAAGTGAAGGAGA: the TetR repression strength was 0.556.
Sequence TCCCCGGCAGTGGTCGAGA gave a TetR repression strength of 0.342.
The result for TCCCTAGGAGTAAGGGAGA reads 0.181; that for TCCCGTGTAGTGGAAGAGA, 0.434.
Turning to TCCCTCCCAGTACGTGAGA, the TetR repression strength came to 0.184.
The result for TCCCACGAAGTGTTAGAGA reads 0.159; that for TCCCACTGAGTTTTGGAGA, 0.63.
The figure for TCCCCAGGAGTCGGCGAGA is 0.237.
Sequence TCCCGGGGAGTTCAGGAGA displayed a TetR repression strength of 0.0846.
For TCCCCGGCAGTGCCGGAGA, the TetR repression strength was 0.158.
The figure for TCCCAGTAAGTGGGCGAGA is 0.19; for TCCCTGGAAGTTCAAGAGA it is 0.305.
The result for TCCCCGCTAGTTGTCGAGA reads 0.104; that for TCCCTTCCAGTGATCGAGA, 0.579.
With TCCCTTGGAGTTGGGGAGA, the TetR repression strength came to 0.309.
The figure for TCCCATAGAGTAAACGAGA is 0.334; for TCCCAATCAGTGTGTGAGA it is 0.101; for TCCCTGAGAGTCGAGGAGA it is 0.0974.
The result for TCCCGGTTAGTAAGAGAGA reads 0.533.
The figure for TCCCAGAAAGTTGGCGAGA is 0.104; for TCCCCTCCAGTGGGGGAGA it is 0.225.
Take TCCCTAGGAGTTCCAGAGA: the TetR repression strength was 0.0889.
TCCCTACAAGTGGGTGAGA had a TetR repression strength of 0.15.
The figure for TCCCAATCAGTTAGGGAGA is 0.146; for TCCCCTATAGTATCTGAGA it is 0.0425; for TCCCACGCAGTCCGTGAGA it is 0.0239.
TCCCGGCGAGTGCAGGAGA registered a TetR repression strength of 0.252.
The figure for TCCCGTGGAGTGCATGAGA is 0.24; for TCCCGCGGAGTCGGGGAGA it is 0.35.
The result for TCCCTGATAGTTAGTGAGA reads 0.449; that for TCCCGAGGAGTTGTCGAGA, 0.194; that for TCCCTGCAAGTAATGGAGA, 0.18.
The figure for TCCCGGTTAGTAAATGAGA is 0.136; for TCCCAACAAGTTCGAGAGA it is 0.128.
For TCCCCACCAGTGAAGGAGA, the TetR repression strength stood at 0.351.
The figure for TCCCGATCAGTTCGGGAGA is 0.132; for TCCCGCACAGTACAGGAGA it is 0.482; for TCCCCATCAGTAGATGAGA it is 0.194.
The figure for TCCCATAGAGTCAGTGAGA is 0.204; for TCCCACTTAGTAAAGGAGA it is 0.268.
For TCCCCTAGAGTATGCGAGA, the TetR repression strength amounted to 0.184.
The result for TCCCACATAGTGATTGAGA reads 0.181; that for TCCCTCCGAGTAGTAGAGA, 0.124; that for TCCCGTCAAGTAGCAGAGA, 0.252.
The result for TCCCTGGTAGTTACGGAGA reads 0.184; that for TCCCCGTAAGTGCTGGAGA, 0.188; that for TCCCAAGAAGTACCAGAGA, 0.275.
The result for TCCCGATGAGTAGCTGAGA reads 0.373; that for TCCCGCACAGTGGCGGAGA, 0.261.
In turn, TCCCCCTCAGTGGGAGAGA had a TetR repression strength of 0.161.
The result for TCCCCATTAGTCGCGGAGA reads 0.241; that for TCCCGGTAAGTGCGCGAGA, 0.165; that for TCCCCGGTAGTTGTAGAGA, 0.178.
The result for TCCCATTTAGTGGTAGAGA reads 0.44; that for TCCCTATCAGTCCCGGAGA, 0.4; that for TCCCAGGGAGTAGGTGAGA, 0.153.
The figure for TCCCGACAAGTGTCAGAGA is 0.022; for TCCCCGATAGTTTGCGAGA it is 0.217.
For TCCCGGCTAGTGCTCGAGA, the TetR repression strength amounted to 0.149.
The figure for TCCCTCTAAGTGAATGAGA is 0.375; for TCCCCGGCAGTCAGGGAGA it is 0.147.
The result for TCCCGTGAAGTGTTAGAGA reads 0.0416; that for TCCCGCTAAGTGTTAGAGA, 0.276.
TCCCTGAGAGTACACGAGA yielded a TetR repression strength of 0.121.
The figure for TCCCTGTTAGTGGTCGAGA is 0.187.
The figure for TCCCGGACAGTAAACGAGA is 0.207; for TCCCGTGGAGTTCGCGAGA it is 0.134; for TCCCACACAGTTTCGGAGA it is 0.275.
The figure for TCCCGTACAGTGCGGGAGA is 0.248; for TCCCTTCCAGTTGTAGAGA it is 0.308; for TCCCGGGCAGTGGCTGAGA it is 0.202.
On to TCCCCGACAGTGCGGGAGA, for which the TetR repression strength was 0.277.
The figure for TCCCGTTAAGTGTCGGAGA is 0.238; for TCCCGTAGAGTGTCCGAGA it is 0.239; for TCCCGATTAGTATCAGAGA it is 0.01.
The sequence TCCCGTTAAGTAAGTGAGA gave a TetR repression strength of 0.37.
The result for TCCCCACGAGTACGCGAGA reads 0.425.
The result for TCCCGGAGAGTGGTCGAGA reads 0.162; that for TCCCTGGAAGTGGCCGAGA, 0.462.
The figure for TCCCGCACAGTTGTCGAGA is 0.125.
For TCCCAGTCAGTGCAGGAGA, the TetR repression strength turned out to be 0.213.
On to TCCCTCTGAGTAGGTGAGA, for which the TetR repression strength was found to be 0.218.
The figure for TCCCGTGGAGTGCCTGAGA is 0.0904; for TCCCCCCGAGTCCCGGAGA it is 0.0333; for TCCCCACCAGTGGGGGAGA it is 0.225.
With TCCCCTACAGTTGAAGAGA, the TetR repression strength stood at 0.
The result for TCCCAGGAAGTGGCCGAGA reads 0.178.
The figure for TCCCATCTAGTTTAAGAGA is 0.294.
The figure for TCCCCATCAGTTTAGGAGA is 0.119; for TCCCTTTCAGTTCGCGAGA it is 0.31; for TCCCGGGTAGTGCACGAGA it is 0.183.
For TCCCTTCTAGTGGCAGAGA, the TetR repression strength was 0.391.
In turn, TCCCACGCAGTGCAAGAGA gave a TetR repression strength of 0.363.
The result for TCCCTAGAAGTTCCCGAGA reads 0.222; that for TCCCTTGAAGTTAGGGAGA, 0.0968; that for TCCCTTCGAGTGATTGAGA, 0.73.
The figure for TCCCAGCAAGTATCAGAGA is 0.27.
The figure for TCCCCCACAGTTCCAGAGA is 0.356.
TCCCCTACAGTGTGGGAGA came in with a TetR repression strength of 0.16.
Take TCCCAACTAGTGCAGGAGA: the TetR repression strength was 0.265.
The result for TCCCCATCAGTTCATGAGA reads 0.401; that for TCCCGGTAAGTTGCGGAGA, 0.294.
The result for TCCCGGACAGTAAGGGAGA reads 0.25; that for TCCCGTATAGTTGGTGAGA, 0.0867.
The result for TCCCGGATAGTTGTCGAGA reads 0.0359; that for TCCCGGACAGTCGAGGAGA, 0.212; that for TCCCGGTCAGTGTATGAGA, 0.274.
Turning to TCCCGCTAAGTCAGGGAGA, the TetR repression strength was 0.138.
The figure for TCCCCGAGAGTGATTGAGA is 0.453; for TCCCGTAGAGTAGAGGAGA it is 0.442.
